According to article PMC2238750:
Changes are numbered by the printed parent chain. No constants are given. Whether binding was seen depends on the method and setting. Binding seen in cells or lysates may run through a third protein. Some binding calls cover weakened binding; strength is not graded here. Tags and fused reporters may be left off the sequences shown.

Sequences of proteins named here, by UniProt entry; tags and fusion partners are left off.
UniProt Q9Y6I3: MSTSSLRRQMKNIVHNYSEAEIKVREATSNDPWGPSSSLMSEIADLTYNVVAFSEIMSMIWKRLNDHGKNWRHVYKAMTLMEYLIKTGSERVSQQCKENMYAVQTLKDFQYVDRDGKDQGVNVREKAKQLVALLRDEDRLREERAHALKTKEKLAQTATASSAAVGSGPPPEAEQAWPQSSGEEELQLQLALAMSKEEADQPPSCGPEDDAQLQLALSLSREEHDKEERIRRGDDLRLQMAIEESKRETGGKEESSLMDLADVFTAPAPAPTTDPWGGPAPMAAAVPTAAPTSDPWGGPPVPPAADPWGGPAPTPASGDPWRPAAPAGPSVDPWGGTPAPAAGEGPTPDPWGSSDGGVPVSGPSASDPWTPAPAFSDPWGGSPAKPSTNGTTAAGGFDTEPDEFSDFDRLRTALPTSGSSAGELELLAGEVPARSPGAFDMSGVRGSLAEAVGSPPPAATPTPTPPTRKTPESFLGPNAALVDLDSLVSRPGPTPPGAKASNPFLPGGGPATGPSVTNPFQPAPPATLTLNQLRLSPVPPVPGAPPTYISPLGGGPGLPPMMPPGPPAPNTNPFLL

What was measured:
[1] = biological target: T1, EH domain of POB1 fused to GST (human) (UniProt Q8NFH8); test: pull-down; Epsin1 pull down with GST-POB1 EH domain and its mutants; data not shown; only the target purified
T1 sequence: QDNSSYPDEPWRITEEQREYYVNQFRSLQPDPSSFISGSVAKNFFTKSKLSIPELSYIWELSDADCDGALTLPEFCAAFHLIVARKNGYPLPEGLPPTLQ

[2] = biological target: T2, GST-POB1 EH domain F344A (human) (UniProt Q8NFH8); test: as above
T2 sequence: T1 sequence with F79A

[3] = biological target: T3, GST-Eps15 C-terminal construct A (623-640) (mouse) (UniProt P42567); test: pull-down; GST-Eps15 fragments on glutathione-sepharose beads incubated with lysate of Hek 293Phoenix cells expressing Myc-POB1; EH buffer, 2 h at 4 °C; anti-Myc blot; only the target purified
T3 sequence: DPFVGSDPFKDDPFGKID

[4] = biological target: T4, GST-Eps15 C-terminal construct B (623-650) (mouse) (UniProt P42567); test: as above
T4 sequence: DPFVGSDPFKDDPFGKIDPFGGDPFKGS

[5] = biological target: T5, GST-Eps15 C-terminal construct C (623-660) (mouse) (UniProt P42567); test: as above
T5 sequence: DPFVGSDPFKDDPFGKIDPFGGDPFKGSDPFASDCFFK

[6] = biological target: T6, GST-Eps15 C-terminal construct D (623-670) (mouse) (UniProt P42567); test: as above
T6 sequence: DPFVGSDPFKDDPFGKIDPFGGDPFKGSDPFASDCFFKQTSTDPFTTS

[7] = biological target: T7, GST-Eps15 C-terminal construct F (623-690) (mouse) (UniProt P42567); test: as above
T7 sequence: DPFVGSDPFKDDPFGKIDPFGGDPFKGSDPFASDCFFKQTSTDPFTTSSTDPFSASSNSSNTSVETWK

[8] = biological target: T8, GST-Eps15 C-terminal construct G (623-700) (mouse) (UniProt P42567); test: as above
T8 sequence: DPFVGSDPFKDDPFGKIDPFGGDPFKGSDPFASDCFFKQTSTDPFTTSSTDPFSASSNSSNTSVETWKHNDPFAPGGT

[9] = biological target: T9, GST-Eps15 C-terminal construct M (623-743) (mouse) (UniProt P42567); test: as above
T9 sequence: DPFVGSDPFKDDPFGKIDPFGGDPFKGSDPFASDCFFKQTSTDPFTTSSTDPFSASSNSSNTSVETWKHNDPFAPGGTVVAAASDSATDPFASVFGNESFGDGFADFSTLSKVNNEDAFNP

[10] = biological target: T10, GST-Eps15 C-terminal construct N (670-743) (mouse) (UniProt P42567); test: as above
T10 sequence: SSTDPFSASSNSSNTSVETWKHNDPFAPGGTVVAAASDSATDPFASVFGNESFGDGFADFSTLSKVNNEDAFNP

[11] = biological target: T1, EH domain of POB1 fused to GST (human); test: pull-down; GST fusions (50 ug) on glutathione-sepharose beads incubated with Hek293 cell extract; EH buffer, 2 h at 4 °C; endogenous Eps15 detected with anti-Eps15 blot; only the target purified
[12] = biological target: T2, GST-POB1 EH domain F344A (human); test: as above
[13] = biological target: T11, GST-POB1 EH domain K312A (human) (UniProt Q8NFH8); test: as above
T11 sequence: T1 sequence with K47A

[14] = biological target: T12, GST-POB1 EH domain K351A (human) (UniProt Q8NFH8); test: as above
T12 sequence: T1 sequence with K86A

[15] = biological target: T13, GST-POB1 EH domain W324A (human) (UniProt Q8NFH8); test: as above
T13 sequence: T1 sequence with W59A

[16] = biological target: T14, GST-POB1 EH domain double mutant K312A-K351A (human) (UniProt Q8NFH8); test: as above
T14 sequence: T1 sequence with K47A, K86A

## Epsin1 (from UniProt Q9Y6I3 1-576)
[1]
  binding: binds
[2]
  binding: binds

B1: full-length POB1 fused to the Myc epitope (protein, UniProt Q8NFH8 1-660)
chain: MEAAAAAAAAAAAAAAAGGGCGSGPPPLLLSEGEQQCYSELFARCAGAAGGGPGSGPPEAARVAPGTATAAAGPVADLFRASQLPAETLHQITELCGAKRVGYFGPTQFYIALKLIAAAQSGLPVRIESIKCELPLPRFMMSKNDGEIRFGNPAELHGTKVQIPYLTTEKNSFKRMDDEDKQQETQSPTMSPLASPPSSPPHYQRVPLSHGYSKLRSSAEQMHPAPYEARQPLVQPEGSSSGGPGTKPLRHQASLIRSFSVERELQDNSSYPDEPWRITEEQREYYVNQFRSLQPDPSSFISGSVAKNFFTKSKLSIPELSYIWELSDADCDGALTLPEFCAAFHLIVARKNGYPLPEGLPPTLQPEYLQAAFPKPKWDCQLFDSYSESLPANQQPRDLNRMEKTSVKDMADLPVPNQDVTSDDKQALKSTINEALPKDVSEDPATPKDSNSLKARPRSRSYSSTSIEEAMKRGEDPPTPPPRPQKTHSRASSLDLNKVFQPSVPATKSGLLPPPPALPPRPCPSQSEQVSEAELLPQLSRAPSQAAESSPAKKDVLYSQPPSKPIRRKFRPENQATENQEPSTAASGPASAATMKPHPTVQKQSSKQKKAIQTAIRKNKEANAVLARLNSELQQQLKEVHQERIALENQLEQLRPVTVL
[3]
  binding: binds
[4]
  binding: binds
[5]
  binding: binds
[6]
  binding: binds
[7]
  binding: binds
[8]
  binding: binds
[9]
  binding: binds
[10]
  binding: binds

B2: full length Eps15 (endogenous, Hek293) (protein, UniProt P42566 1-896)
chain: MAAAAQLSLTQLSSGNPVYEKYYRQVDTGNTGRVLASDAAAFLKKSGLPDLILGKIWDLADTDGKGILNKQEFFVALRLVACAQNGLEVSLSSLNLAVPPPRFHDTSSPLLISGTSAAELPWAVKPEDKAKYDAIFDSLSPVNGFLSGDKVKPVLLNSKLPVDILGRVWELSDIDHDGMLDRDEFAVAMFLVYCALEKEPVPMSLPPALVPPSKRKTWVVSPAEKAKYDEIFLKTDKDMDGFVSGLEVREIFLKTGLPSTLLAHIWSLCDTKDCGKLSKDQFALAFHLISQKLIKGIDPPHVLTPEMIPPSDRASLQKNIIGSSPVADFSAIKELDTLNNEIVDLQREKNNVEQDLKEKEDTIKQRTSEVQDLQDEVQRENTNLQKLQAQKQQVQELLDELDEQKAQLEEQLKEVRKKCAEEAQLISSLKAELTSQESQISTYEEELAKAREELSRLQQETAELEESVESGKAQLEPLQQHLQDSQQEISSMQMKLMEMKDLENHNSQLNWCSSPHSILVNGATDYCSLSTSSSETANLNEHVEGQSNLESEPIHQESPARSSPELLPSGVTDENEVTTAVTEKVCSELDNNRHSKEEDPFNVDSSSLTGPVADTNLDFFQSDPFVGSDPFKDDPFGKIDPFGGDPFKGSDPFASDCFFRQSTDPFATSSTDPFSAANNSSITSVETLKHNDPFAPGGTVVAASDSATDPFASVFGNESFGGGFADFSTLSKVNNEDPFRSATSSSVSNVVITKNVFEETSVKSEDEPPALPPKIGTPTRPCPLPPGKRSINKLDSPDPFKLNDPFQPFPGNDSPKEKDPEIFCDPFTSATTTTNKEADPSNFANFSAYPSEEDMIEWAKRESEREEEQRLARLNQQEQEDLELAIALSKSEISEA
[11]
  binding: binds
[12]
  binding: binds
[13]
  binding: no binding
[14]
  binding: no binding
[15]
  binding: no binding
[16]
  binding: no binding
